Results as given in PubChem BioAssay AID686979 (National Center for Advancing Translational Sciences (NCATS), 2013).
“And” between values parts separate entries of the source, which are not always exact repeats. Identical values can stand only once. Screen size: about 420,000 compounds; about 50,000 (12%) were called active. The shares of active, inactive and inconclusive entries below differ from those in the screen. Calls follow the shape of the dose curve; as a rule, active = well fitted inhibition curve with a large enough effect; inconclusive = small, poorly fitted or top-dose-only effect; inactive = flat fitted curve, though single readings scatter. A potency beside an inconclusive call is a rough fit, not a confirmed value.

Assay: qHTS for Inhibitors of human tyrosyl-DNA phosphodiesterase 1 (TDP1): qHTS in cells in presence of CPT; also: nearly all actives have a fitted effect of over 55% in size
Conditions: chicken DT40 Tdp1-/-;hTDP1 cells + 20 nM CPT, ATP luminescence, 48 h; activity change, negative = growth inhibition: at 46.2 µM (top of the series) unless noted
Method in brief: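 Chicken DT40 Tdp1-/- cells complemented with human TDP1, 400 cells/well, exposed to compounds plus 20 nM camptothecin for at least 48 h at 37 C; viability read as ATP content by CellTiter-Glo luminescence.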
% is scaled to controls: 0 for no effect and ±100 for the full control effect; potency is read from the fitted curve at half-maximal effect; tags tell the direction and shape of the fitted curve.

SMILES | Potency | activity change, negative = growth inhibition
CC(=O)N1c2ccc(S(=O)(=O)N3CCCCCC3)cc2CC1C(=O)NCc1cccc(C)c1 (stereo unspecified) | inconclusive: 8.2 µM [inhibitor, partial curve] | –
O=C(O)/C(=C\c1ccc(Cl)cc1)c1ccc(F)cc1 | – | inactive: 2.57%
CCOc1ccc(-c2cc3nc(C4CCN(C(=O)OC(C)(C)C)CC4)c(C(=O)Nc4cccc(CC)c4)cn3n2)cc1 | active: 23.1 µM | –
C=CC[C@@H](CC(=O)OC(C)(C)C)C(=O)OC[C@H]1CCCN1C(=O)[C@@H](CC=C)CC(=O)NCCO | – | inactive: -2.5%
CC(=O)c1cc(F)c(N2CCN(C(=O)COc3ccccc3F)CC2)cc1C | active: 20.6 µM | –
Cc1cccc(NC(=O)CSc2nc3ccc(NC(=O)c4ccccc4)cc3s2)c1 | active: 8.2 µM | –
Cc1nc2nc(SCC(=O)Nc3cccc(F)c3)[nH]c2cc1Br | inconclusive: 23.1 µM [inhibitor, partial curve] | –
CC(C)(C)c1ccc(-c2nc(NC(=O)CSc3ncnc4sc5c(c34)CCCC5)ns2)cc1 | inconclusive: 3.26 µM [inhibitor, full curve] | –
Fc1ccc(-c2nc3c4ccccc4ccn3c2Cc2ccccc2C(F)(F)F)cc1 | inconclusive: 29.1 µM [inhibitor, single point] | –
O=C(Nc1cccc(Br)c1)C1CCCC1 | – | inactive: 1.55%
CCCCOc1ccc(C(=O)N(Cc2ccc(N(C)C)cc2)Cc2ccco2)cc1 | inconclusive: 29.1 µM [inhibitor, single point] | –
CCOC(=O)c1c(-n2cccc2)sc2c1CCCC2=O | – | inactive: -3.63%
COc1ccc(NC(=O)C/C(C)=N/NC(=O)c2ccccn2)c(OC)c1 | – | inactive: 9.45%
Cc1ccc([C@H]2C[C@H](O)[C@@H](n3cc(C4CC4)nn3)CN2CC2CCCCC2)cc1 | inconclusive: 29.1 µM [inhibitor, single point] | –
Cc1ccc(S(=O)(=O)N2CCN(c3nc(-c4cccs4)nc(C)c3C)CC2)cc1 | – | inactive: 9.71%
COc1ccc2c(Cl)c(C(=O)N/N=C/c3c(C)[nH]c4ccccc34)sc2c1 | inconclusive: 16.4 µM [inhibitor, single point] | –
O=C(c1cccc(F)c1)N1CCC[C@@]2(CCN(C(c3ccccc3)c3ccccc3)C2)C1 | inconclusive: 25.9 µM [inhibitor, single point] | –
Cc1ccc(-n2ncc3c(NCc4ccccc4)ncnc32)cc1Cl | inconclusive: 13 µM [inhibitor, partial curve] | –
Cc1cccc(NC(=O)Nc2cnccn2)c1C | – | inactive: -17.4%
CCC(C)[C@H]1COCCS(=O)(=O)N1Cc1ccccc1F (stereo partly specified) | inconclusive: 35.5 µM [inhibitor, single point] and inconclusive: 20.6 µM [inhibitor, single point] | –
CCOc1ccccc1C(=O)NCc1ccco1 | inconclusive: 14.6 µM [inhibitor, single point] | –
CCN1C(=O)CC(c2ccc(OC(C)C)cc2)C1=O (stereo unspecified) | – | inactive: 3.81%
CC1=Nc2ccccc2N=C(NC(=O)CSC(=S)N2CCCCC2)C1c1ccccc1 (stereo unspecified) | – | inactive: -19.7%

SMILES | Potency | activity change, negative = growth inhibition
CCOc1cc(CNc2ccc3c(c2)CCC3)ccc1O | inconclusive: 10.3 µM [inhibitor, partial curve] | –
COc1ccc(-c2c(C)nc3c(-c4ccccn4)cnn3c2N)cc1 | inconclusive: 29.1 µM [inhibitor, single point] | –
CCc1ccccc1NC(=O)CNCC(=O)Nc1ccccc1CC | – | inactive: -19.8%
CC(=O)OC1(C(C)=O)CCC2C3CC(C(F)(F)F)C4=CC(=O)CCC4(C)C3CCC21C (stereo unspecified) | inconclusive: 29.1 µM [inhibitor, single point] | –
COc1ccc(N2CC(NC(=O)/C=C\c3ccc4c(c3)OCO4)CC2=O)cc1OC (stereo unspecified) | – | inactive: 1.54%
COC(=O)[C@@]1(Cc2ccc(F)cc2)[C@H]2c3cc(C(=O)N4CCCC4)n(C)c3C[C@H]2CN1C(=O)c1ccccc1 | active: 23.1 µM | –
O=C(c1cccc(N2CCCC2=O)c1)N1CCN(c2ccc(F)cc2)CC1 | – | inactive: 3.71%
O=C(C[C@H]1C/C=C\C[C@H](Cc2ccc(F)cc2)C(=O)O[C@@H](c2ccccc2)CNC1=O)N[C@@H](CO)Cc1ccccc1 | active: 20.6 µM | –
COc1ccccc1CNC(=O)CCn1c(=O)oc2ccccc21 | – | inactive: -0.0725%
CCOc1ccccc1NC(=O)C1Cc2ccccc2CN1S(C)(=O)=O (stereo unspecified) | – | inactive: -0.0745%
CCc1ccc(NC(=O)CSc2nccn2-c2ccc(F)cc2)cc1 | inconclusive: 2.59 µM [inhibitor, single point] | –
O=C(Nc1ccncc1)Nc1cccc(Cl)c1 | inconclusive: 25.9 µM [inhibitor, single point] | –
O=C(N/N=C/c1ccc(Cl)cc1Cl)c1ccc2nc[nH]c2c1 | inconclusive: 20.6 µM [inhibitor, single point] | –
COc1cc(C(=O)NCc2nnc(SCC(=O)c3ccc(Cl)cc3)o2)cc(OC)c1OC | – | inactive: -18.9%
COc1ccccc1CNC(=O)C1CCN(S(=O)(=O)c2ccc3c(c2)OCCCO3)CC1 | inconclusive: 16.4 µM [inhibitor, single point] | –
CC(=O)OCC=C1CCC2C3CC(C)C4=CC(=O)CCC4(C)C3C(O)CC12C (stereo unspecified) | inconclusive: 23.1 µM [inhibitor, single point] | –
Cc1ccc(CSc2nc3nc(C)cc(C)n3n2)cc1 | – | inactive: -1.56%
O=C(NC1CCCC1)C(c1ccc(F)cc1)N(C(=O)Cc1cccs1)c1ccc2c(c1)OCCO2 (stereo unspecified) | inconclusive: 7.31 µM [inhibitor, partial curve] | –
COc1ccc(NC(=O)CN(C)S(=O)(=O)c2ccc3c(c2)CCCN3C(C)=O)cc1 | inconclusive: 20.6 µM [inhibitor, single point] | –
Cc1nnc(SCC(=O)NCc2ccc(F)cc2)[nH]c1=O | – | inactive: -4.78%
CN(CC(=O)Nc1cccc(F)c1)C(=O)CN1C(=O)C2CCCCC2C1=O (stereo unspecified) | – | inactive: -21.9%
N#CC(=C1NC(=O)c2ccccc21)c1nc2ccccc2n1CCO | inconclusive: 23.1 µM [inhibitor, single point] | –
CC(Oc1cc2oc(=O)c3c(c2cc1Cl)CCC3)C(=O)N1C[C@H]2C[C@@H](C1)c1cccc(=O)n1C2 (stereo partly specified) | – | inactive: -13.2%
